# Assay results: the supplement of paper PMC7826260
# The other results are listed elsewhere or left out. Viral Rep nickase domains cut single-stranded DNA in vitro (1 h at 37 °C, 3 µM enzyme); the outer parts of the 90-letter strands are left off. The score is log2 (uncut reads / reads without enzyme); the lower, the more was cut; hits are not called. Because reads are shares of a total, they shift together; where an enzyme cuts many sequences, the uncut ones exceed 0.
# Tested on: T1, Rep nickase domain of tomato golden mosaic virus
# T1 sequence (residues 1-124, tag not shown): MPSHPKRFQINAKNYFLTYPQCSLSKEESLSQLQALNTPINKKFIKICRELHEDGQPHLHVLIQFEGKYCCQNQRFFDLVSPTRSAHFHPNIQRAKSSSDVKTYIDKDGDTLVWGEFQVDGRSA
# Test: uncleaved DNA left, log2 of reads against the no-enzyme library (log2 ratio); higher = less cleavage (more negative = more Rep cleavage of the k-mer); sequences stand for … in CTCGTCCG…ACCGGAGA
# Description: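 A pool of 90-nt single-stranded DNAs with seven random bases just before the constant AC of the nick site (name = the seven bases) was cut by 3 µM recombinant His6-SUMO-tagged Rep nickase domain (300 nM DNA, 50 mM HEPES pH 8.0, 50 mM NaCl, 1 mM MnCl2, 1 h, 37 °C, three replicates). Uncut DNA was amplified and sequenced.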
row,Sequence,uncleaved DNA left (log2)
1,CCGGGCC,0.119
2,TTTTGAC,-0.175
3,AAACGCA,0.0113
4,TTTGTAT,-0.2
5,ATGATAG,0.0202
6,GTTACCT,0.051
7,ACGTGCG,-0.121
8,GCTTAAC,-0.076
9,TTCAGAC,-0.0274
10,TACTGGG,0.0406
11,GGGTCTG,0.0601
12,AGTAAAT,0.0194
13,ATCTTGG,-0.00855
14,TGCTACT,-0.579
15,TTGAATC,-0.0213
16,AACGGGG,0.19
17,AAATCAA,0.152
18,AATTTAA,0.00536
19,CCTAATA,-0.121
20,GGCTCCA,0.0465

row,Sequence,uncleaved DNA left (log2)
1,CCATTCG,-0.113
2,CGCGGTG,-0.0796
3,AGCCCGC,-0.0328
4,TTGTCCA,0.0223
5,TGGTGCA,-0.0199
6,TGAAAGT,-0.0206
7,GACTCTG,0.0198
8,TCATGTG,-0.052
9,TGACACA,0.0679
10,TCGTATC,-0.0649
11,AGAGTAA,0.106
12,TACATCC,-0.0627
13,GAAGCAT,-0.0432
14,CACTCTC,0.0533
15,CAGAACT,-0.0646
16,ATGCGCT,-0.176
17,AATACAC,0.108
18,TTCAACA,-0.16
19,GGAAGAT,0.187
20,CCCGCCG,-0.218
